For 61 compounds, GI50 and TGI results are on record in PubChem BioAssay (NCI).

Several values for one entry are separate records, joined by “and”; a condition that tells them apart may be missing. Identical values can stand only once.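 Cultured in 96-well plates, cells were exposed to test compound for 48 hours across five concentrations. At the GI50, growth is halved. The concentration for full growth arrest is given as TGI.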 Square brackets hold non-standard residues; d marks the D form. Peptide text beside a SMILES is read from it. Orn = NCCC[CH](N)C(=O)O

In this test the test system is NCI-H322M lung. Kind of test: inhibition of tumour cell growth, NCI panel, 48 h.
As for `COc1ccc(/C=C/C(=O)c2ccc(NC(=O)CSc3nnc(-c4cc(OC)c(OC)c(OC)c4)o3)cc2)cc1`, the GI50 was 1.59 µM and the TGI is 2.98 µM.

Take `CCOC(=O)c1c2c(n3cccc(F)c13)C(=O)c1ncccc1C2=O`: the GI50 is 0.0759 µM and the TGI is 6.82 µM.

`O=C(O)CCCC#CCCCC(=O)O` had a TGI above 100 µM.

Compound `Cc1ccc(S(=O)(=O)NC(=O)Nc2nc(Cl)cc(Cl)n2)cc1` came in with a TGI above 100 µM.

`CC1(CC(=O)OC(C#C[Si](C)(C)C)Cc2ccccc2)OCCO1` (centres undefined): the TGI was above 100 µM.

Turning to `O=CNc1ccc2c(c1)Cc1cc([N+](=O)[O-])ccc1-2`, the GI50 was 1.91 µM and the TGI was above 100 µM.

Compound `COc1ccc(C2C3=C(CCCC3=O)N(c3ccccc3)C3=C2C(=O)CCC3)cc1` had a TGI above 100 µM.

As to `O=C(Nc1ncc(Cc2ccc(Cl)cc2)s1)c1ccc2c(c1)OCCO2`, the GI50 was 0.0726 µM and the TGI is above 100 µM.

As to `Cc1ccccc1Nc1cn(CCOc2ccccc2)c(=O)n(CCOc2ccccc2)c1=O`, the TGI is above 100 µM.

The compound `CC(C)(C)C1CCN(C(=O)c2ccccc2)CC1` showed a TGI above 100 µM.

With `CN(C)C1COC2Cc3ccccc3C1O2` (centres undefined), the TGI was above 100 µM.

In turn, `O=CN/C=C/c1ccccc1O` returned a TGI above 100 µM.

`CC1CC(=O)NC2CC1C2(C)C` (centres undefined) registered a TGI above 100 µM.

On to `C[C@H]1[C@H](C)CC[C@]2(C(=O)O)CC[C@]3(C)C(=CC[C@@H]4[C@@]5(C)CC[C@H](OC(=O)/C=C\c6ccc(O)cc6)C(C)(C)[C@@H]5CC[C@]43C)[C@H]12`, for which the GI50 was 1.15 µM and the TGI was 5.97 µM.

`COc1ccc2cc(C(=O)/C=C/c3ccccc3OC)ccc2c1`: the GI50 is 3.64 µM and the TGI is 22 µM.

`O=c1nc2[nH]nc(-c3ccccc3)c2n[nH]1` yielded a TGI above 100 µM.

Compound `N#Cc1ccccc1/C=N/O` yielded a TGI above 100 µM.

With `O=C(/C=C/c1ccc2c(c1)OCO2)c1ccccc(=O)c1O`, the TGI worked out at 45.7 µM.

`C/C(=C\[C@H]1C[C@@H]([C@@H]2CC[C@]34C[C@]23C=C[C@@H]2[C@@]3(C)CC=C5C[C@@H](c6ccccc6)OC[C@]5(C)[C@@H]3C[C@@H](O)[C@]24C)C(=O)O1)CO` registered a TGI above 58.1 µM.

Turning to `O=C(CN1C(=O)c2ccccc2C1=O)OCC1CCCN2CCCCC12` (centres undefined), the TGI is above 100 µM.

Turning to `Cn1cc(C2=C(c3cccc(NCC(O)CO)c3)C(=O)NC2=O)c2cc(Cl)ccc21` (centres undefined), the GI50 was 4.89 µM and the TGI turned out to be 16.5 µM.

With `O=C(CN/C=C\C(=O)c1cc(Cl)ccc1Cl)c1ccccc1`, the GI50 is 81.1 µM and the TGI was above 100 µM.

For the compound `COC(=O)/C(Br)=C/c1c[nH]c2ccc(Br)cc12`, the GI50 is 17.5 µM and the TGI was determined as 39.9 µM.

For `O=C1/C(=C/c2cccc([N+](=O)[O-])c2)N=C(c2ccccc2)N1c1ccc2c(c1)Sc1cc(N3C(=O)/C(=C/c4cccc([N+](=O)[O-])c4)N=C3c3ccccc3)ccc1N2`, the TGI is 36.2 µM.

In turn, `COC(=O)c1c/c(=N\NC(=O)CC(=O)Nc2ccc(C)cc2)c2ccccc2o1` returned a TGI above 100 µM.

With `COc1ccc(-c2oncc2-c2cc(OC)c3c(c2)OCO3)cc1`, the GI50 was 4.93 µM and the TGI was above 100 µM.

Compound `CCOC(=O)c1cc(C2(OC)CCN(Cc3ccccc3)C2=O)c(-c2cc(C)no2)[nH]1` (centres undefined) displayed a TGI above 100 µM.

For `COc1cc([C@@H]2c3cc4c(cc3[C@H](O)[C@H]3COC(=O)[C@@H]23)OCO4)cc(OC)c1OC`, the GI50 is 0.652 µM and 0.507 µM; the TGI was above 100 µM.

`O=C(NO)c1ccc(OCc2ccccc2)cc1` returned a TGI above 100 µM.

`COC(=O)[C@]1(C)CCC[C@]2(C)C3CC4OOC3(C=C4C(C)C)CCC21` (some centres undefined) displayed a TGI of 55.9 µM.

For `Nc1nn(C(=O)Nc2ccc(Cc3ccccc3)cc2)c2ccccc12`, the GI50 was 27.8 µM and the TGI was above 100 µM.

For `N=c1c2c(=O)n3c(nc2nc2sc4ccc(Cl)cc4n12)-c1ccccc1Sc1ccccc1-3`, the GI50 was 1.94 µM and the TGI turned out to be 8.91 µM.

Regarding `CC(C)CC1NC(=O)C(CCCN)NC(=O)C(C(C)C)NC(=O)C2CCCN2C(=O)C(Cc2ccccc2)NC(=O)C(CC(C)C)NC(=O)C(CCCN)NC(=O)C(C(C)C)NC(=O)C2CCCN2C(=O)C(Cc2ccccc2)NC1=O` (centres undefined) (cyclo(FPV[Orn]LFPV[Orn]L); configuration not given here), the GI50 was 0.0134 µM and 0.0483 µM; the TGI is 0.487 µM and 1.29 µM.

Take `O=C(O)C1CCCN1Cc1ccc2c(c1)OCO2` (centres undefined): the TGI was above 100 µM.

`Clc1ccc(CSCc2ccc(Cl)cc2Cl)c(Cl)c1` had a TGI above 100 µM.

The compound `COc1ccc(C2Oc3c(cccc3OC)C=C2[N+](=O)[O-])cc1` (centres undefined) gave a TGI of 8.25 µM.

In the case of `Cn1c(=O)c2c(nc3sc4ncccc4c(=O)n32)n(C)c1=O`, the TGI was above 100 µM.

As for `Nc1nc(Cl)cc(NCC2(CO)CC(Cc3ccccc3)C2)n1` (centres undefined), the TGI is above 100 µM.

Compound `C/C(=C\c1ccc2c(c1)OCO2)[N+](=O)[O-]` registered a TGI of 30.1 µM.

As for `C#CCOc1c(OC)cc(C(=O)/C(C)=C/c2cccc(N=[N+]=[N-])c2)cc1OC`, the GI50 is 0.675 µM and the TGI was above 100 µM.

Consider `O=C1c2cccnc2-c2nccc3ccnc1c23`, for which the TGI turned out to be 23.1 µM.

In the case of `CN(CCNC(=O)c1cc(-c2ccccc2)nc2ccccc12)CCNC(=O)c1cc(-c2ccccc2)nc2ccccc12`, the TGI was above 100 µM.

In turn, `O=C(CN1CCCC1)Nc1ccc2sc3ccccc3c(=O)c2n1` displayed a TGI of 54.3 µM.

As for `COC1(C)Cc2c(c(C)c(O)c3c2C(=O)C=C(Cl)C3=O)O1` (centres undefined), the TGI is above 100 µM.

In the case of `COc1ccc2nc(-c3ccc(O)cc3)cn2c1`, the TGI is above 100 µM.

On to `COc1cc2c(cc1C)NC(=O)/C2=C/c1c(C)nc2sc(C)cn12`, for which the GI50 is 92.5 µM and the TGI is above 100 µM.

`COC(=O)/C(Cl)=C1/CC1COCc1ccccc1` (centres undefined) gave a TGI above 100 µM.

In turn, `O=C1CC23CC(=O)CC2(C1)c1ccccc1C3=O` (centres undefined) gave a TGI above 100 µM.

On to `COc1cc2c(cc1OC)C(=O)/C(=C/c1ccccc1)C2`, for which the TGI was above 100 µM.

For the compound `O=C1c2ccc3ccccc3c2CCC1N1CCCCC1` (centres undefined), the TGI came out at 29.1 µM.

`CN(C)C(=S)SCc1ccccc1` registered a TGI above 100 µM.

In the case of `CCCCC/C(=N\c1nc[nH]c1C(N)=O)OCC`, the TGI was above 100 µM.

In turn, `C[C@]12CCC(=O)C=C1CC[C@@H]1[C@@H]2CC[C@]2(C)C(=O)/C(=C\c3ccccc3)C[C@@H]12` registered a TGI above 100 µM.

Turning to `O=C(Nc1cc(Cl)cc(Cl)c1)c1ccc(NC2=C(Cl)C(=O)N(Cc3ccccc3)C2=O)cc1`, the GI50 was 16.5 µM and the TGI was determined as 41.1 µM.

Consider `COC(=O)CCC(=O)C(C#N)c1ccc(Cl)cc1Cl` (centres undefined), for which the TGI was above 100 µM.

`CC(C)(C)OC(=O)N1C(=O)OC[C@@H]2C=C[C@@H]21` had a TGI above 100 µM.

Compound `CCOC(=O)c1cc(Cl)ccc1OC(N)=O` yielded a TGI above 100 µM.

`Oc1ccc2c3c1OC1c4[nH]c5c(c4CC4(O)C(C2)N(CC2CC2)CC[C@]314)CC1(O)C2Cc3ccc(O)c4c3[C@@]1(CCN2CC1CC1)C5O4` (some centres undefined) returned a TGI above 100 µM.

As for `CCN1CCN(Cc2ccc3cc(C(=O)Nc4cc(NC(=O)c5ccc6c(c5)OCCO6)ccc4F)ccc3n2)CC1`, the GI50 was 0.0477 µM and the TGI was found to be 3.63 µM.

`Clc1ccc(-c2cc(-c3nc4ccccc4[nH]3)no2)cc1` had a TGI of 43.7 µM.

`Cc1cc(NC(=O)C(=O)Cc2nc3ccccc3s2)ccc1Cl` yielded a TGI above 100 µM.
